Where “and” joins values, the source holds several entries; their conditions need not be identical. Equal values may be shown once. Where a name gives a salt, the structure may show the parent alone. ± gives the standard deviation of the averaged measurements. The full ranking holds about 3,100 compounds; the median of “mean cytoplasmic OPP incorporation (global translation) relative to DMSO” is about 100, and the lowest 2% start at about 56. This is one part of the list. Bridge positions count the residues as written; N and C are the ends. Square brackets hold non-standard residues; d marks the D form. Peptide text beside a SMILES is read from it. * marks the point of attachment. Ileψ(thiazoline)Cys = CC[C@H](C)[C@H](N)C1=N[C@H](C(=O)*)CS1; dOrn = NCCC[C@@H](N)C(=O)O
system: U2OS; assay: mean cytoplasmic OPP incorporation (global translation) relative to DMSO (% of DMSO); higher = more protein synthesis; conditions: 10 µM; 24 h
Description: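 Primary image-based screen in U2OS cells: compounds at 10 uM for 24 h, then a 1 h o-propargyl-puromycin (OPP) pulse, click labelling, and high-throughput microscopy. Mean cytoplasmic OPP intensity and nuclei count were normalised to DMSO wells within each plate (DMSO = 100) and averaged over triplicate plates.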

Point of comparison: `CN1CCN(CCCN2c3ccccc3Sc3ccc(C(F)(F)F)cc32)CC1` [Trifluoperazine dihydrochloride], “mean cytoplasmic OPP incorporation” value 112. Against it:
- CNC[C@H](O)c1ccc(O)c(O)c1 [Epinephrine bitartrate (Adrenalinium)] — lower, 102
- CNCc1ccc(-c2cc(-c3nc(-c4ccc(S(=O)(=O)C(C)C)cc4)cnc3N)on2)cc1 — lower, 99.9
- CN(C)CCN1C(=O)c2ccccc2N(C)c2ccccc21 [Dibenzepine hydrochloride] — lower, 104
- COc1ccc(OC)c(C(O)CNC(=O)CN)c1 (stereo not drawn) [Midodrine hydrochloride] — lower, 48.8
- CC(S)C(=O)NCC(=O)O (stereo not drawn) [Tiopronin (Thiola)] — lower, 103
- O=C(CCc1ccc(O)cc1)c1c(O)cc(O)cc1O [Phloretin (Dihydronaringenin)] — lower, 99.2
- Cc1cn(CCN2CCN(c3ccccc3-c3cc(C#N)cc(C(=O)NCCCN4CCCC4)c3)CC2)c2ccccc12 — lower, 30.6
- CC(=O)C1=C(O)C=C2Oc3c(C(C)=O)c(O)c(C)c(O)c3[C@]2(C)C1=O [Usnic acid] — lower, 101
- CC[C@H](C)[C@H](N)C1=N[C@H](C(=O)N[C@@H](CC(C)C)C(=O)N[C@H](CCC(=O)O)C(=O)N[C@H](C(=O)N[C@H]2CCCCNC(=O)[C@H](CC(N)=O)NC(=O)[C@@H](CC(=O)O)NC(=O)[C@H](Cc3cnc[nH]3)NC(=O)[C@@H](Cc3ccccc3)NC(=O)[C@H]([C@@H](C)CC)NC(=O)[C@@H](CCCN)NC2=O)[C@@H](C)CC)CS1 [Bacitracin] ({Ileψ(thiazoline)Cys}-L[dE]IK[dOrn]I[dF]H[dD]N; lactam 4-C) — lower, 102
- OC(CNCC(O)C1CCc2cc(F)ccc2O1)C1CCc2cc(F)ccc2O1 (stereo not drawn) [Nebivolol hydrochloride] — lower, 105
- OC(CNCC(O)C1CCc2cc(F)ccc2O1)C1CCc2cc(F)ccc2O1 (stereo not drawn) [Nebivolol (Bystolic)] — lower, 110
- C[C@@H](O)[C@H]1C(=O)N2C(C(=O)O)=C(S[C@@H]3CN[C@H](CNS(N)(=O)=O)C3)[C@H](C)[C@H]12 [Doripenem Hydrate] — lower, 103
- Oc1c(I)cc(Cl)c2cccnc12 [Clioquinol] — lower, 101
- CC(C)(C#N)c1cc(Cn2cncn2)cc(C(C)(C)C#N)c1 [Anastrozole] — lower, 97.3
- COc1cc2nccc(Oc3ccc(NC(=O)Nc4cc(C)on4)c(Cl)c3)c2cc1OC [Tivozanib (AV-951)] — lower, 105
- COC(=O)/C=C/c1cc(O)ccc1O [Methyl 2,5-dihydroxycinnamate] — lower, 96.5
- CNC(=O)c1cccc(-c2ccc3c(N4CCOC[C@@H]4C)nc(N4CCOC[C@@H]4C)nc3n2)c1 — lower, 67.8 ± 15
- C=CCNC(N)=S [Allylthiourea] — lower, 100
- CN(C)CCOC(C)(c1ccccc1)c1ccccn1 (stereo not drawn) [Doxylamine succinate] — lower, 104
- CC(=O)c1ccc2c(c1)N(CCCN(C)C)c1ccccc1S2 [Acetopromazine maleate salt] — lower, 103
- CN(C(=O)C(Cl)Cl)c1ccc(OC(=O)c2ccco2)cc1 [Diloxanide furoate] — lower, 99.2
- CCc1cc(Nc2nccc(-c3c(-c4ccc(OC)c(C(=O)Nc5c(F)cccc5F)c4)nc4ccccn34)n2)c(OC)cc1N1CCC(N2CCN(S(C)(=O)=O)CC2)CC1 — within error, 109 ± 5
- OC(CCCN1CCN(c2ncc(F)cn2)CC1)c1ccc(F)cc1 (stereo not drawn) — lower, 96.1
- Nc1ccn([C@H]2CC[C@@H](CO)O2)c(=O)n1 [Zalcitabine] — higher, 115
- Cc1cccc(C)c1OCC(C)N (stereo not drawn) [Mexiletine hydrochloride] — lower, 101 ± 1.2
- CN[C@@H](C)C(=O)N[C@H]1CN(C(=O)CC(C)C)CC[C@H]2CC[C@@H](C(=O)NC(c3ccccc3)c3ccccc3)N2C1=O — higher, 123
- COc1ccccc1N1CCN(CCCCN2C(=O)c3ccccc3C2=O)CC1 [NAN-190 hydrobromide] — lower, 102
- CN1[C@@H]2CC[C@H]1C[C@@H](OC(=O)c1c[nH]c3ccccc13)C2 [Tropisetron hydrochloride] — lower, 94.8
- CN1[C@@H]2CC[C@H]1C[C@@H](OC(=O)c1c[nH]c3ccccc13)C2 [Tropisetron HCl] — lower, 96.9
- Cc1cc(=O)[nH]c(=S)[nH]1 [Methylthiouracil] — lower, 99.5
- Cc1cc(I)ccc1Nc1c(C(=O)NOCC2CC2)cc(F)c(F)c1F — lower, 97.5
- CC(=O)[C@H]1CC[C@H]2[C@@H]3C=CC4=CC(=O)CC[C@@]4(C)[C@@H]3CC[C@]12C [Dydrogesterone] — lower, 110
- O=C(O)c1ccc(N2C(=O)C(=Cc3ccccc3)SC2=S)cc1 — lower, 102
- CC[C@]1(O)C[C@H]2CN(CCc3c([nH]c4ccccc34)[C@@](C(=O)OC)(c3cc4c(cc3OC)N(C=O)[C@H]3[C@@](O)(C(=O)OC)[C@H](OC(C)=O)[C@]5(CC)C=CCN6CC[C@]43[C@@H]65)C2)C1 [Vincristine] — lower, 101
- CC[C@]1(O)C[C@H]2CN(CCc3c([nH]c4ccccc34)[C@@](C(=O)OC)(c3cc4c(cc3OC)N(C=O)[C@H]3[C@@](O)(C(=O)OC)[C@H](OC(C)=O)[C@]5(CC)C=CCN6CC[C@]43[C@@H]65)C2)C1 [Vincristine sulfate] — lower, 93.4
- Nc1nc(CC(=O)Nc2ccc(CCNC[C@H](O)c3ccccc3)cc2)cs1 [Mirabegron (YM178)] — lower, 111
- NC[C@@H]1O[C@H](O[C@H]2[C@@H](O)[C@H](O[C@@H]3[C@@H](O)[C@H](N)C[C@H](N)[C@H]3O[C@H]3O[C@H](CO)[C@@H](O)[C@H](O)[C@H]3N)O[C@@H]2CO)[C@H](N)[C@@H](O)[C@@H]1O [Paromomycin sulfate] — lower, 105
- COc1ccccc1OCC(O)CO (stereo not drawn) [Guaifenesin] — lower, 94.9
- CCOc1cc2ncc(C#N)c(Nc3ccc(F)c(Cl)c3)c2cc1NC(=O)/C=C/CN(C)C [Pelitinib (EKB-569)] — lower, 84.4
- Oc1c(Cl)cc(Cl)c(Cl)c1Cc1c(O)c(Cl)cc(Cl)c1Cl [Hexachlorophene] — lower, 107 ± 3.6
- Cc1c(N(C)C)c(=O)n(-c2ccccc2)n1C [Amidopyrine] — lower, 105

`COc1cccc(-c2cc(=O)c3ccccc3o2)c1N` was tested, and the “mean cytoplasmic OPP incorporation” value was 95.8 and 83.2 and 82.5.
